# In the supplement of paper PMC8728848:
# The list shows a part of the results.
# How the values were obtained:
# Assay in all cases: glycan array binding signal (z-score within array); higher = stronger binding
# Settings in all cases: glycan notation: IUPAC condensed, linker removed
# Gal(a1-4)Gal(b1-4)GlcNAc = molecular target: Gal(a1-4)Gal(b1-4)GlcNAc
# Summary of the method: (§1)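 The binding signal is a Z-score computed within each array. Data were drawn from 3228 arrays in the Consortium for Functional Glycomics database, restricted to those with a known protein sequence. Scores were averaged over arrays of the same protein sequence at different concentrations or buffers, and over linkers, and negative values can be taken as non-binding.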
# [1] = molecular target: Gal(a1-4)Gal(b1-4)GlcNAc(b1-2)Man(a1-3)[Gal(a1-4)Gal(b1-4)GlcNAc(b1-2)Man(a1-6)]Man(b1-4)GlcNAc(b1-4)GlcNAc
# Summary of the method: as §1
# [2] = molecular target: Gal(a1-4)Gal(b1-4)GlcNAc(b1-3)Gal(b1-4)Glc
# Summary of the method: as §1
# Gal(a1-4)GlcNAc = molecular target: Gal(a1-4)GlcNAc
# Summary of the method: as §1
# Gal(a1-6)Glc = molecular target: Gal(a1-6)Glc
# Summary of the method: as §1
# Gal(b1-2)Gal = molecular target: Gal(b1-2)Gal
# Summary of the method: as §1
# Gal(b1-3)Gal = molecular target: Gal(b1-3)Gal
# Summary of the method: as §1
# Gal(b1-3)Gal(b1-4)GlcNAc = molecular target: Gal(b1-3)Gal(b1-4)GlcNAc
# Summary of the method: as §1
# [3] = molecular target: Gal(b1-3)Gal(b1-4)GlcNAc(b1-2)Man(a1-3)[Gal(b1-3)Gal(b1-4)GlcNAc(b1-2)Man(a1-6)]Man(b1-4)GlcNAc(b1-4)GlcNAc
# Summary of the method: as §1
# Gal(b1-3)GalNAc = molecular target: Gal(b1-3)GalNAc
# Summary of the method: as §1
# [4] = molecular target: Gal(b1-3)GalNAc(a1-3)[Fuc(a1-2)]Gal(b1-4)Glc
# Summary of the method: as §1
# [5] = molecular target: Gal(b1-3)GalNAc(a1-3)[Fuc(a1-2)]Gal(b1-4)GlcNAc
# Summary of the method: as §1
# [6] = molecular target: Gal(b1-3)GalNAc(b1-3)Gal(a1-4)Gal(b1-4)Glc
# Summary of the method: as §1
# [7] = molecular target: Gal(b1-3)GalNAc(b1-4)Gal(b1-4)Glc
# Summary of the method: as §1
# [8] = molecular target: Gal(b1-3)GalNAc(b1-4)[Neu5Ac(a2-3)]Gal(b1-4)Glc
# Summary of the method: as §1
# Gal(b1-3)GlcNAc = molecular target: Gal(b1-3)GlcNAc
# Summary of the method: as §1
# [9] = molecular target: Gal(b1-3)GlcNAc(a1-3)Gal(b1-4)GlcNAc
# Summary of the method: as §1
# [10] = molecular target: Gal(b1-3)GlcNAc(a1-6)Gal(b1-4)GlcNAc
# Summary of the method: as §1
# [11] = molecular target: Gal(b1-3)GlcNAc(b1-2)Man(a1-3)[Gal(b1-3)GlcNAc(b1-2)Man(a1-6)]Man(b1-4)GlcNAc(b1-4)GlcNAc
# Summary of the method: as §1
# [12] = molecular target: Gal(b1-3)GlcNAc(b1-2)Man(a1-3)[Gal(b1-3)GlcNAc(b1-2)Man(a1-6)]Man(b1-4)GlcNAc(b1-4)[Fuc(a1-6)]GlcNAc
# Summary of the method: as §1
# [13] = molecular target: Gal(b1-3)GlcNAc(b1-2)Man(a1-3)[GlcNAc(b1-4)][Gal(b1-3)GlcNAc(b1-2)Man(a1-6)]Man(b1-4)GlcNAc(b1-4)GlcNAc
# Summary of the method: as §1
# [14] = molecular target: Gal(b1-3)GlcNAc(b1-2)[Gal(b1-3)GlcNAc(b1-6)]Man(a1-6)[Gal(b1-3)GlcNAc(b1-2)Man(a1-3)]Man(b1-4)GlcNAc(b1-4)GlcNAc
# Summary of the method: as §1
# [15] = molecular target: Gal(b1-3)GlcNAc(b1-3)Gal(b1-3)GlcNAc
# Summary of the method: as §1
# [16] = molecular target: Gal(b1-3)GlcNAc(b1-3)Gal(b1-4)Glc
# Summary of the method: as §1
# [17] = molecular target: Gal(b1-3)GlcNAc(b1-3)Gal(b1-4)GlcNAc
# Summary of the method: as §1
# [18] = molecular target: Gal(b1-3)GlcNAc(b1-3)Gal(b1-4)GlcNAc(b1-6)[Gal(b1-3)GlcNAc(b1-3)]Gal(b1-4)Glc
# Summary of the method: as §1
# [19] = molecular target: Gal(b1-3)GlcNAc(b1-3)Gal(b1-4)[Fuc(a1-3)]GlcNAc(b1-6)[Gal(b1-3)GlcNAc(b1-3)]Gal(b1-4)Glc
# Summary of the method: as §1
# [20] = molecular target: Gal(b1-3)GlcNAc(b1-3)GalNAc
# Summary of the method: as §1
# [21] = molecular target: Gal(b1-3)GlcNAc(b1-6)Gal(b1-4)GlcNAc
# Summary of the method: as §1
# [22] = molecular target: Gal(b1-3)GlcNAc(b1-6)GalNAc
# Summary of the method: as §1
# Gal(b1-3)GlcNAc6S = molecular target: Gal(b1-3)GlcNAc6S
# Summary of the method: as §1
# [23] = molecular target: Gal(b1-3)[Fuc(a1-4)]GlcNAc
# Summary of the method: as §1
# [24] = molecular target: Gal(b1-3)[Fuc(a1-4)]GlcNAc(b1-2)Man(a1-3)[Gal(b1-3)[Fuc(a1-4)]GlcNAc(b1-2)Man(a1-6)]Man(b1-4)GlcNAc(b1-4)[Fuc(a1-6)]GlcNAc
# Summary of the method: as §1
# [25] = molecular target: Gal(b1-3)[Fuc(a1-4)]GlcNAc(b1-3)Gal(b1-3)[Fuc(a1-4)]GlcNAc
# Summary of the method: as §1
# [26] = molecular target: Gal(b1-3)[Fuc(a1-4)]GlcNAc(b1-3)Gal(b1-4)GlcNAc
# Summary of the method: as §1
# [27] = molecular target: Gal(b1-3)[Fuc(a1-4)]GlcNAc(b1-3)Gal(b1-4)[Fuc(a1-3)]GlcNAc
# Summary of the method: as §1
# [28] = molecular target: Gal(b1-3)[Fuc(a1-4)]GlcNAc(b1-6)GalNAc
# Summary of the method: as §1
# [29] = molecular target: Gal(b1-3)[GlcNAc(b1-6)]GalNAc
# Summary of the method: as §1
# [30] = molecular target: Gal(b1-3)[Neu5Ac(a2-6)]GalNAc
# Summary of the method: as §1
# [31] = molecular target: Gal(b1-3)[Neu5Ac(a2-6)]GlcNAc(b1-6)Gal(b1-4)Glc
# Summary of the method: as §1
# [32] = molecular target: Gal(b1-3)[Neu5Ac(b2-6)]GalNAc
# Summary of the method: as §1
# Gal(b1-4)Gal = molecular target: Gal(b1-4)Gal
# Summary of the method: as §1
# [33] = molecular target: Gal(b1-4)GalNAc(a1-3)[Fuc(a1-2)]Gal(b1-4)GlcNAc
# Summary of the method: as §1
# [34] = molecular target: Gal(b1-4)GalNAc(b1-3)[Fuc(a1-2)]Gal(b1-4)GlcNAc
# Summary of the method: as §1
# Gal(b1-4)Glc = molecular target: Gal(b1-4)Glc
# Summary of the method: as §1
binder,measurement,setting,value
Morniga (Morus nigra) (protein) MAGTSTNTQTTGTSQTVEVGLWGGPGGNAWDDGSYTGIREINLSHGDAIGAFSVIYDLNGQPFTGPTHPGNEPSFKTVKITLDFPNEFLVSVSGYTGVLPRLATGKDVIRSLTFKTNKKTYGPYGKEEGTPFSLPIENGLIVGFKGRSGFVVDAIGVHLS,glycan array binding signal (z-score),Gal(a1-4)Gal(b1-4)GlcNAc,-0.34
same,glycan array binding signal (z-score),[1],2.47
same,glycan array binding signal (z-score),[2],-0.341
same,glycan array binding signal (z-score),Gal(a1-4)GlcNAc,-0.324
same,glycan array binding signal (z-score),Gal(a1-6)Glc,-0.329
same,glycan array binding signal (z-score),Gal(b1-2)Gal,-0.336
same,glycan array binding signal (z-score),Gal(b1-3)Gal,-0.333
same,glycan array binding signal (z-score),Gal(b1-3)Gal(b1-4)GlcNAc,-0.335
same,glycan array binding signal (z-score),[3],4.04
same,glycan array binding signal (z-score),Gal(b1-3)GalNAc,-0.334
same,glycan array binding signal (z-score),[4],-0.338
same,glycan array binding signal (z-score),[5],-0.334
same,glycan array binding signal (z-score),[6],-0.345
same,glycan array binding signal (z-score),[7],-0.337
same,glycan array binding signal (z-score),[8],-0.338
same,glycan array binding signal (z-score),Gal(b1-3)GlcNAc,-0.336
same,glycan array binding signal (z-score),[9],-0.337
same,glycan array binding signal (z-score),[10],-0.339
same,glycan array binding signal (z-score),[11],3.06
same,glycan array binding signal (z-score),[12],1.26
same,glycan array binding signal (z-score),[13],1.26
same,glycan array binding signal (z-score),[14],1.79
same,glycan array binding signal (z-score),[15],-0.34
same,glycan array binding signal (z-score),[16],-0.336
same,glycan array binding signal (z-score),[17],-0.347
same,glycan array binding signal (z-score),[18],-0.336
same,glycan array binding signal (z-score),[19],-0.335
same,glycan array binding signal (z-score),[20],-0.318
same,glycan array binding signal (z-score),[21],-0.334
same,glycan array binding signal (z-score),[22],-0.334
same,glycan array binding signal (z-score),Gal(b1-3)GlcNAc6S,-0.302
same,glycan array binding signal (z-score),[23],-0.329
same,glycan array binding signal (z-score),[24],0.156
same,glycan array binding signal (z-score),[25],-0.331
same,glycan array binding signal (z-score),[26],-0.343
same,glycan array binding signal (z-score),[27],-0.328
same,glycan array binding signal (z-score),[28],-0.31
same,glycan array binding signal (z-score),[29],-0.339
same,glycan array binding signal (z-score),[30],-0.33
same,glycan array binding signal (z-score),[31],-0.33
same,glycan array binding signal (z-score),[32],-0.335
same,glycan array binding signal (z-score),Gal(b1-4)Gal,-0.318
same,glycan array binding signal (z-score),[33],-0.341
same,glycan array binding signal (z-score),[34],-0.338
same,glycan array binding signal (z-score),Gal(b1-4)Glc,-0.342
